Source: the supplement of paper PMC11417369
The other results are listed elsewhere or left out.

system: PfSIP2 AP2 domain 1 (GST-tagged); test: gcPBM binding intensity (ln(normalized median fluorescence intensity)); higher = stronger DNA binding
How it was run: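 GST-tagged P. falciparum DNA-binding domains, expressed in E. coli (about 25 μg on average), were applied for 1 h to an Agilent 4 × 180k array of primer-extended double-stranded 36-bp intergenic genomic probes plus negative controls. The binding buffer was 1× PBS with 1% milk, 0.2 mg/ml BSA, 0.5% salmon testes DNA and 0.03% Triton X-100. Bound protein was detected with Alexa488 anti-GST antibody and scanned at 488 nm. Binding intensity is the highest Masliner-normalised natural-log median intensity across replicate spots of either probe orientation.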

Sequence | gcPBM binding intensity (ln)
ATCATTTAAACAATATGTACTCATTGTAGATATGGT [XGTACX_site5088] | 7.17
TGAATAAAATATTATACACACATATGTATTTAACAT [CACACA_site4694] | 6.94
AATGGGATCATGGTATGTACTTACACAAATGAATTA [XGTACX_site5389] | 6.82
TTGTATTTACTATACACACACATACATACATACATA [CACACA_site4603] | 7.07
CGTTACACAAAAATATGTACATATATACATATATAT [XGTACX_site4631] | 7.3
TATAAATATAAATACTGTACATTATATTATATAATA [XGTACX_site2480] | 6.95
TATTCCCCCAAACACACACACACACCCACATACCAC [CACACA_site2304] | 7.83
TAAAAATAATATTAATGTACATTACATATTAATATA [XGTACX_site1019] | 6.83
ATATATATATATATGTGTACATATTAGTGATATAAT [XGTACX_site7161] | 9.14
AATGCGCATTTTTTTTTTTTTTTTTTTTTTTTTTTT [XGTACX_negctrl_site258] | 8.83
ATTCTATATGTTACATAAACCTATATTTTTTTTTTT [CACACA_negctrl_site860] | 6.84
ATAAAGCCATACAATACACACATTTTACATGTCGGT [CACACA_site3265] | 6.87
TAAGCCACCATATTTACACACACATCAAAATGTATT [CACACA_site1815] | 7.03
GAAAAAAGAAATTTATGTACATACATATATATATAT [XGTACX_site7888] | 9
ATATGTAAAATATGGGGTACGAAGGTAGGTAGGTAA [XGTACX_site1392] | 7.42
TAATATTGACTATATACACACATATAAATATAAATA [CACACA_site6414] | 6.96
TATATATATATATATACATGCATCATTGTTCACCTT [TGCATGCA_site177] | 9.31
TTTTTTTTTTAATTAACACACATAAATATAAATATA [CACACA_site7527] | 6.89
AAAAAAAAAAAAAAAAGTACATATGCTCAAGAGATG [XGTACX_site3783] | 7.69
CATTCAAAGAAAAACAGTACGTGTAGCAAAAGGCCT [XGTACX_site266] | 6.92
TAAATAATATAATTATGTACGTATTTCTTTATTTTA [XGTACX_site8410] | 6.89
GCTGAAAATAAATGAAGTACACAAGTAATATATATA [XGTACX_site6205] | 7.8

Sequence | gcPBM binding intensity (ln)
TCTTATAAAGGTAATTGTACATATTTATAATTTCTT [XGTACX_site4847] | 6.76
GTGAAAGGAAAAGTTGAACACACAAAGTAAACTATA [CACACA_site9178] | 6.74
AATAATATTTAATACGCACACAATAATAATATAAAA [CACACA_site1763] | 7.23
CACACGCACGAACACACACACATATAAATATAAATA [CACACA_site6299] | 7.56
ATATATTATTATACATGTACATATATAGATATATAT [XGTACX_site4358] | 7.08
AACAATAATTTTGAATGTACATATAAATATTTTTAT [XGTACX_site5501] | 7.05
ATATACATATAGGATGCACACATAATTCAAATACAA [CACACA_site8120] | 8.22
AAAAAAAAGAATAGCACACACACATATATAAATATA [CACACA_site630] | 6.88
GTTAATTCTATGAATTGTACTTAAATATAATTATAT [XGTACX_site2785] | 7.02
ATAAATACTAAAAATGAAATATAGAAAATAGCAATA [CACACA_negctrl_site501] | 6.89
ACAGTTAAAACAATAACACACAAAGAAAAAAAAAAA [CACACA_site737] | 6.97
CAAAATAAAAATAACACACACATTTATATAAATACA [CACACA_site4790] | 6.99
TATAATATATTATATACACACATTATAAAATACCCA [CACACA_site4858] | 6.96
TATATTTTTATTGAACGTACAAAAAGTCGAAAACAG [XGTACX_site3967] | 7.61
TTTAAATACAGACATACACACATACACGCACATATA [CACACA_site6400] | 7.17
AGGTAGAAATTGTTAAAAAATCATACATATTATATA [CACACA_negctrl_site622] | 6.9
TATATGTATCCATTATGTACATAATAGTAATATAAT [XGTACX_site4008] | 7.06
TATATTTATTTTCTGTGTACACATATGTTGTGTATT [XGTACX_site7640] | 7.27
AAAACCTAGTGCATTTGTACATATTTCAATTTTAAA [XGTACX_site4582] | 9.33
TAAAAAATACAAGAGTGTACAAAATTTTTCTAAATG [XGTACX_site5334] | 6.91
TATACGTGTTTTATTTGTACTTAAGCAGGTAAGCAT [XGTACX_site193] | 6.96
CTATATATTTTTTCTTAACACACATATATAAAATAA [CACACA_site9165] | 7.26

Sequence | gcPBM binding intensity (ln)
TTATTTTTTAATTATATTCAAAATTAAAAAAAAAAA [XGTACX_negctrl_site226] | 6.89
ATTGATAAATTAACTAGTACACATATAAATATATTA [XGTACX_site2325] | 7.15
ATTAAAAAAAAAAAAAAAAAAAAAAAAAAAAAAAAA [CACACA_negctrl_site1060] | 7.02
AATATAAATGTGATTACACACAACAGATTTAAATGG [CACACA_site4802] | 6.98
TAGTATTTATATGATTAACACACATATGGGTATTAA [CACACA_site8363] | 6.67
AAAAAAAAAAAAAAAAGTACTCAATAATAATTACAT [XGTACX_site670] | 7.74
CATAATAGTTATAAAATACACACCAGGCATGATAAA [CACACA_site329] | 6.76
ATATACACCTGAGAGGTGCATATATATAAAATTTAC | 11.2
CCGTACAATTTTGTCACACATAAAATACTTATGTAT [CACACA_site4871] | 6.95
AATGTAGTTTATCGATGTACACAAAATAAAGAGAAG [XGTACX_site6956] | 7.99
GTAATTTTTTTCTATACACACATATATATAATATAT [CACACA_site2655] | 7.44
AATATAAATATAAATATAAATAAATAAATAAATAAA [CACACA_negctrl_site291] | 7.25
AAAGTAAAAGGGTTTGGTACACATATAATATATTAG [XGTACX_site6036] | 6.95
CATTTATATAAAGAATGTACACACAGAAATGCACAC [XGTACX_site4718] | 8.37
ATAACTTTTATTTGTACACACATACATCTATATTAT [CACACA_site6595] | 7.49
AGTAAAAGAAAGCACACACACATGTATTTATGTATG [CACACA_site5998] | 6.85
AAAAAAAAAAAAAAATGTACATATATATATATATTA [XGTACX_site7330] | 7.32
ATAAAATAAGACAAAAAAAAAATATATATATATATA [TGCATGCA_negctrl_site314] | 9.19
CCTTGTCTTTTTTTTTTTTTTTTTTCTTCTTATTTT [GTGCAC_negctrl_site523] | 6.9
AGTAGATATAATATATGTACATATATATATATATAT [XGTACX_site7186] | 9.72
TGCATATACTCAAGCACACATATATATATATATATA [CACACA_site4733] | 9.6
ATATTAAACAAACACACACACATATATATATATATA [CACACA_site3383] | 9.67

Sequence | gcPBM binding intensity (ln)
ATATATTGAAAATATAGTACATAATAAATGTTCTTT [XGTACX_site8474] | 6.83
TTTTTTTTTTTTTTTTTTTTTTTTTTTTTTTGGGGG [CACACA_negctrl_site1570] | 7.49
AATAAATTTAAACACACACACACATATATATATATA [CACACA_site4621] | 9.57
TATATACATAAACACACACACACATATATATATATA [CACACA_site8707] | 9.72
CAGATAGACTTATATGCATGCATTCACCTGCCAACA [TGCATGCA_site158] | 6.91
ATATTACATAATATATGTACACACGCAAATACTTAT [XGTACX_site671] | 7.11
TAAGCATAAATGTATACATGCGATGCATACACATAT [TGCATGCA_site749] | 6.77
ATGAAATTATATTGGGGTACGTCAAAAAAGGAGATA [XGTACX_site7451] | 7.5
GGGTATATATTATTATGTACACATGTATAAAATAAG [XGTACX_site2633] | 7.29
AAAAAAAAAAAAATTACACACATACATATAATAATA [CACACA_site8680] | 7.06
ATATTAAGAATAAACAGTACATATAATAAATACCAT [XGTACX_site5933] | 6.92
TTTGTGTATATATAATGTACATTATATTTTTATTAT [XGTACX_site6506] | 7.15
ATTAAAAAAAAAGAGCGTACAAATAATTACTTCTTT [XGTACX_site8262] | 6.83
TATAAATTTATAAATAGTACATATATTTATATATAT [XGTACX_site6433] | 7.36
TATATATATGGACACACACACACATATATATATATA [CACACA_site6121] | 9.4
AAAAAAAATATACATACATGCATACATAAGTTTCTA [TGCATGCA_site998] | 6.98
AAACGTATGTTATTTACACACCCTTCCACTTTTATA [CACACA_site3337] | 6.8
TATAAAATAAGACATGCATGTTATACATATATATTT [TGCATGCA_site156] | 6.84
CATTATTATTTTATAACACACACATATATATTATAT [CACACA_site8405] | 7.08
ATGTTTTTTATTCTTCGTACGTATGAACGATAGTGT [XGTACX_site4225] | 7.3
ATGTGCAAATATTAAAGTACTAAATTTTATTATTTT [XGTACX_site7306] | 7.67
ATAAATACATATAAAAGTACACACACACACATATAT [XGTACX_site1744] | 7.36
